Assay results taken from the supplement of paper PMC8728848.
The other results are listed elsewhere or left out.

Assays:
Assay in all cases: glycan array binding signal (z-score within array); higher = stronger binding
Conditions in all cases: glycan notation: IUPAC condensed, linker removed
[1] = target: Neu5Ac(a2-3)Gal(b1-4)GlcNAc(b1-6)GalNAc
In short: (§1)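 The binding signal is a Z-score computed within each array and averaged over linkers. Arrays of the same protein sequence at different concentrations or buffers were also averaged together. Data originate from 3228 arrays in the Consortium for Functional Glycomics database, kept only where the protein sequence was available.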

[2] = target: Neu5Ac(a2-3)Gal(b1-4)GlcNAc(b1-6)[Gal(b1-3)]GalNAc
In short: as §1

[3] = target: Neu5Ac(a2-3)Gal(b1-4)GlcNAc(b1-6)[Neu5Ac(a2-3)Gal(b1-3)]GalNAc
In short: as §1

[4] = target: Neu5Ac(a2-3)Gal(b1-4)GlcNAc6S
In short: as §1

[5] = target: Neu5Ac(a2-3)Gal(b1-4)[Fuc(a1-3)]GlcNAc
In short: as §1

[6] = target: Neu5Ac(a2-3)Gal(b1-4)[Fuc(a1-3)]GlcNAc(b1-2)Man
In short: as §1

[7] = target: Neu5Ac(a2-3)Gal(b1-4)[Fuc(a1-3)]GlcNAc(b1-3)Gal
In short: as §1

[8] = target: Neu5Ac(a2-3)Gal(b1-4)[Fuc(a1-3)]GlcNAc(b1-3)Gal(b1-4)GlcNAc
In short: as §1

[9] = target: Neu5Ac(a2-3)Gal(b1-4)[Fuc(a1-3)]GlcNAc(b1-3)Gal(b1-4)[Fuc(a1-3)]GlcNAc(b1-3)Gal(b1-4)[Fuc(a1-3)]GlcNAc
In short: as §1

[10] = target: Neu5Ac(a2-3)Gal(b1-4)[Fuc(a1-3)]GlcNAc(b1-3)GalNAc
In short: as §1

[11] = target: Neu5Ac(a2-3)Gal(b1-4)[Fuc(a1-3)]GlcNAc(b1-6)[Gal(b1-3)]GalNAc
In short: as §1

[12] = target: Neu5Ac(a2-3)Gal(b1-4)[Fuc(a1-3)]GlcNAc(b1-6)[Neu5Ac(a2-3)Gal(b1-3)]GalNAc
In short: as §1

[13] = target: Neu5Ac(a2-3)Gal(b1-4)[Fuc(a1-3)]GlcNAc6S
In short: as §1

[14] = target: Neu5Ac(a2-3)Gal6S(b1-4)GlcNAc
In short: as §1

[15] = target: Neu5Ac(a2-3)Gal6S(b1-4)[Fuc(a1-3)]GlcNAc
In short: as §1

Neu5Ac(a2-3)GalNAc = target: Neu5Ac(a2-3)GalNAc
In short: as §1

[16] = target: Neu5Ac(a2-3)GalNAc(b1-4)GlcNAc
In short: as §1

[17] = target: Neu5Ac(a2-3)[GalNAc(b1-4)]Gal(b1-4)Glc
In short: as §1

[18] = target: Neu5Ac(a2-3)[GalNAc(b1-4)]Gal(b1-4)GlcNAc
In short: as §1

[19] = target: Neu5Ac(a2-3)[GalNAc(b1-4)]Gal(b1-4)GlcNAc(b1-3)GalNAc
In short: as §1

[20] = target: Neu5Ac(a2-3)[Neu5Ac(a2-6)]GalNAc
In short: as §1

Neu5Ac(a2-6)Gal = target: Neu5Ac(a2-6)Gal
In short: as §1

[21] = target: Neu5Ac(a2-6)Gal(b1-3)GlcNAc(b1-3)[Gal(b1-4)GlcNAc(b1-6)]Gal(b1-4)Glc
In short: as §1

Neu5Ac(a2-6)Gal(b1-4)Glc = target: Neu5Ac(a2-6)Gal(b1-4)Glc
In short: as §1

[22] = target: Neu5Ac(a2-6)Gal(b1-4)GlcNAc
In short: as §1

[23] = target: Neu5Ac(a2-6)Gal(b1-4)GlcNAc(b1-2)Man
In short: as §1

[24] = target: Neu5Ac(a2-6)Gal(b1-4)GlcNAc(b1-2)Man(a1-3)Man(b1-4)GlcNAc(b1-4)GlcNAc
In short: as §1

[25] = target: Neu5Ac(a2-6)Gal(b1-4)GlcNAc(b1-2)Man(a1-3)[Gal(b1-4)GlcNAc(b1-2)Man(a1-6)]Man(b1-4)GlcNAc(b1-4)GlcNAc
In short: as §1

[26] = target: Neu5Ac(a2-6)Gal(b1-4)GlcNAc(b1-2)Man(a1-3)[GlcNAc(b1-2)Man(a1-6)]Man(b1-4)GlcNAc(b1-4)GlcNAc
In short: as §1

[27] = target: Neu5Ac(a2-6)Gal(b1-4)GlcNAc(b1-2)Man(a1-3)[GlcNAc(b1-4)][Neu5Ac(a2-6)Gal(b1-4)GlcNAc(b1-2)Man(a1-6)]Man(b1-4)GlcNAc(b1-4)GlcNAc
In short: as §1

[28] = target: Neu5Ac(a2-6)Gal(b1-4)GlcNAc(b1-2)Man(a1-3)[Man(a1-6)]Man(b1-4)GlcNAc(b1-4)GlcNAc
In short: as §1

[29] = target: Neu5Ac(a2-6)Gal(b1-4)GlcNAc(b1-2)Man(a1-3)[Neu5Ac(a2-3)Gal(b1-4)GlcNAc(b1-2)Man(a1-6)]Man(b1-4)GlcNAc(b1-4)GlcNAc
In short: as §1

[30] = target: Neu5Ac(a2-6)Gal(b1-4)GlcNAc(b1-2)Man(a1-3)[Neu5Ac(a2-6)Gal(b1-4)GlcNAc(b1-2)Man(a1-6)]Man(b1-4)GlcNAc(b1-4)GlcNAc
In short: as §1

[31] = target: Neu5Ac(a2-6)Gal(b1-4)GlcNAc(b1-2)Man(a1-3)[Neu5Ac(a2-6)Gal(b1-4)GlcNAc(b1-2)Man(a1-6)]Man(b1-4)GlcNAc(b1-4)[Fuc(a1-6)]GlcNAc
In short: as §1

[32] = target: Neu5Ac(a2-6)Gal(b1-4)GlcNAc(b1-2)Man(a1-6)Man(b1-4)GlcNAc(b1-4)GlcNAc
In short: as §1

[33] = target: Neu5Ac(a2-6)Gal(b1-4)GlcNAc(b1-2)Man(a1-6)[Gal(b1-4)GlcNAc(b1-2)Man(a1-3)]Man(b1-4)GlcNAc(b1-4)GlcNAc
In short: as §1

[34] = target: Neu5Ac(a2-6)Gal(b1-4)GlcNAc(b1-2)Man(a1-6)[GlcNAc(b1-2)Man(a1-3)]Man(b1-4)GlcNAc(b1-4)GlcNAc
In short: as §1

[35] = target: Neu5Ac(a2-6)Gal(b1-4)GlcNAc(b1-2)Man(a1-6)[Man(a1-3)]Man(b1-4)GlcNAc(b1-4)GlcNAc
In short: as §1

[36] = target: Neu5Ac(a2-6)Gal(b1-4)GlcNAc(b1-2)[Neu5Ac(a2-6)Gal(b1-4)GlcNAc(b1-4)]Man(a1-3)[GlcNAc(b1-4)][Neu5Ac(a2-6)Gal(b1-4)GlcNAc(b1-2)[Neu5Ac(a2-6)Gal(b1-4)GlcNAc(b1-6)]Man(a1-6)]Man(b1-4)GlcNAc(b1-4)GlcNAc
In short: as §1

[37] = target: Neu5Ac(a2-6)Gal(b1-4)GlcNAc(b1-2)[Neu5Ac(a2-6)Gal(b1-4)GlcNAc(b1-4)]Man(a1-3)[GlcNAc(b1-4)][Neu5Ac(a2-6)Gal(b1-4)GlcNAc(b1-4)Man(a1-6)]Man(b1-4)GlcNAc(b1-4)GlcNAc
In short: as §1

[38] = target: Neu5Ac(a2-6)Gal(b1-4)GlcNAc(b1-2)[Neu5Ac(a2-6)Gal(b1-4)GlcNAc(b1-6)]Man(a1-6)[Neu5Ac(a2-6)Gal(b1-4)GlcNAc(b1-2)Man(a1-3)][GlcNAc(b1-4)]Man(b1-4)GlcNAc(b1-4)GlcNAc
In short: as §1

[39] = target: Neu5Ac(a2-6)Gal(b1-4)GlcNAc(b1-3)Gal(b1-3)GlcNAc
In short: as §1

[40] = target: Neu5Ac(a2-6)Gal(b1-4)GlcNAc(b1-3)Gal(b1-4)GlcNAc
In short: as §1

[41] = target: Neu5Ac(a2-6)Gal(b1-4)GlcNAc(b1-3)Gal(b1-4)GlcNAc(b1-2)Man(a1-3)[Neu5Ac(a2-6)Gal(b1-4)GlcNAc(b1-3)Gal(b1-4)GlcNAc(b1-2)Man(a1-6)]GalNAc
In short: as §1

[42] = target: Neu5Ac(a2-6)Gal(b1-4)GlcNAc(b1-3)Gal(b1-4)GlcNAc(b1-3)Gal(b1-4)GlcNAc
In short: as §1

[43] = target: Neu5Ac(a2-6)Gal(b1-4)GlcNAc(b1-3)Gal(b1-4)GlcNAc(b1-3)Gal(b1-4)GlcNAc(b1-2)Man(a1-3)[Neu5Ac(a2-6)Gal(b1-4)GlcNAc(b1-3)Gal(b1-4)GlcNAc(b1-3)Gal(b1-4)GlcNAc(b1-2)Man(a1-6)]GalNAc
In short: as §1

B1: MPA (Maclura pomifera), P18674 (protein)
chain: GVTFDDGAYTGIREINFEYNSETAIGGLRVTYDLNGMPFVAEDHKSFITGFKPVKISLEFPSEYIVEVSGYVGKVEGYTVIRSLTFKTNKQTYGPYGVTNGTPFSLPIENGLIVGFKGSIGYWLDYFSIYLSL
glycan array binding signal (z-score) [1]: -0.205
glycan array binding signal (z-score) [2]: -0.114
glycan array binding signal (z-score) [3]: -0.111
glycan array binding signal (z-score) [4]: -0.331
glycan array binding signal (z-score) [5]: -0.223
glycan array binding signal (z-score) [6]: -0.296
glycan array binding signal (z-score) [7]: -0.285
glycan array binding signal (z-score) [8]: -0.137
glycan array binding signal (z-score) [9]: -0.116
glycan array binding signal (z-score) [10]: 0.018
glycan array binding signal (z-score) [11]: 0.082
glycan array binding signal (z-score) [12]: -0.03
glycan array binding signal (z-score) [13]: -0.118
glycan array binding signal (z-score) [14]: -0.268
glycan array binding signal (z-score) [15]: -0.197
glycan array binding signal (z-score) (Neu5Ac(a2-3)GalNAc): -0.266
glycan array binding signal (z-score) [16]: -0.204
glycan array binding signal (z-score) [17]: -0.201
glycan array binding signal (z-score) [18]: -0.218
glycan array binding signal (z-score) [19]: -0.089
glycan array binding signal (z-score) [20]: -0.186
glycan array binding signal (z-score) (Neu5Ac(a2-6)Gal): -0.228
glycan array binding signal (z-score) [21]: -0.172
glycan array binding signal (z-score) (Neu5Ac(a2-6)Gal(b1-4)Glc): -0.108
glycan array binding signal (z-score) [22]: -0.226
glycan array binding signal (z-score) [23]: -0.281
glycan array binding signal (z-score) [24]: -0.17
glycan array binding signal (z-score) [25]: -0.065
glycan array binding signal (z-score) [26]: -0.302
glycan array binding signal (z-score) [27]: -0.496
glycan array binding signal (z-score) [28]: -0.228
glycan array binding signal (z-score) [29]: -0.227
glycan array binding signal (z-score) [30]: -0.188
glycan array binding signal (z-score) [31]: -0.216
glycan array binding signal (z-score) [32]: -0.239
glycan array binding signal (z-score) [33]: -0.154
glycan array binding signal (z-score) [34]: -0.173
glycan array binding signal (z-score) [35]: -0.337
glycan array binding signal (z-score) [36]: -0.236
glycan array binding signal (z-score) [37]: -0.218
glycan array binding signal (z-score) [38]: -0.375
glycan array binding signal (z-score) [39]: -0.29
glycan array binding signal (z-score) [40]: -0.241
glycan array binding signal (z-score) [41]: 0.484
glycan array binding signal (z-score) [42]: -0.233
glycan array binding signal (z-score) [43]: 6.71
